Test results reported in paper PMC4336329 (PLoS ONE, 2015).
Screen size: about 310,000 compounds; about 14,000 (4.5%) showed an effect of 50% or more. Effects have a minus sign here. This is one part of the list.

The compounds below were run against human ether-à-go-go-related gene (hERG) potassium channel (human, UniProt Q12809) (assay: primary screen, population patch clamp on CHO cells stably expressing hERG).
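Note: peak tail current of the secondary pulse compared with the same well before compound.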

Sequence of human ether-à-go-go-related gene (hERG) potassium channel (Q12809 whole entry, looked up): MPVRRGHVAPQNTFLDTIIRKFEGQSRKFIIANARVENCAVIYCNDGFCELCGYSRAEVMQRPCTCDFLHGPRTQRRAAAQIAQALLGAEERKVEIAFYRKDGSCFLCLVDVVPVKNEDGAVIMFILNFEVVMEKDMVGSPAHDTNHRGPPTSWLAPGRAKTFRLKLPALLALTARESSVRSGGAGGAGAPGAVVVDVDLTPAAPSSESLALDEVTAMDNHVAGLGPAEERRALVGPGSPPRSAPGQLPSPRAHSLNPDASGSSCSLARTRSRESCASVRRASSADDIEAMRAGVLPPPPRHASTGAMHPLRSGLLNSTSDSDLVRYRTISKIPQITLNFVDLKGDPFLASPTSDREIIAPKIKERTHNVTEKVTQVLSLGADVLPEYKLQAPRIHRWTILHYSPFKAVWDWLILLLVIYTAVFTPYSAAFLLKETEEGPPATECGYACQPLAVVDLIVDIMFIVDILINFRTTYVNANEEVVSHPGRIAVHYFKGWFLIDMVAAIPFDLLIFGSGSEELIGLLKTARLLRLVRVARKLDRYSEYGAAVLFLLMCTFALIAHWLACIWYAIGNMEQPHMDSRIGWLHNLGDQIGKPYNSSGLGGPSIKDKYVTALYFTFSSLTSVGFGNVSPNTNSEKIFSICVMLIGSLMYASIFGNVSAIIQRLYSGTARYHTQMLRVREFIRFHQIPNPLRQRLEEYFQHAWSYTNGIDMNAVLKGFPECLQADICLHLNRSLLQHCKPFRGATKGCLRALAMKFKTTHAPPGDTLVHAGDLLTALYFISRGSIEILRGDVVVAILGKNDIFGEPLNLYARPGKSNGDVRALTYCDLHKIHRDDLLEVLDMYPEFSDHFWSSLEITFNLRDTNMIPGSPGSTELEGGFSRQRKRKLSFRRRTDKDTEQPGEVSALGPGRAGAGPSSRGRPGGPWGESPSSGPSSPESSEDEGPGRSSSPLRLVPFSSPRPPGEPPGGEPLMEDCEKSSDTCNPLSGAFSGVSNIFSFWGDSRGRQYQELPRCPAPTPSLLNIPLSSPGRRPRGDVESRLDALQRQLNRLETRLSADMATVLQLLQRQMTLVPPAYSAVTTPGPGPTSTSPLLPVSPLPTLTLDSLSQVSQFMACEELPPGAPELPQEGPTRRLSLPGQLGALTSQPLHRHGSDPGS

Structure (SMILES)	hERG current change (%, negative = inhibition) at 10uM [%]
Cc1ccc(NC(=O)C(OC(=O)c2cc(C)oc2C)c2ccccc2)cc1 (stereo not shown)	6.95
CCOc1ccc(NC(=O)CCNS(=O)(=O)c2cccc3nsnc23)cc1	-4.4
C/C(=N/OC(=O)c1ccccc1Br)c1ccc(C)cc1	16.1
COc1ccc2[nH]c(=O)c(CN(Cc3ccc(C)cc3)Cc3nnnn3CC3CCCO3)cc2c1 (stereo not shown)	-10.2
Cc1nc2sccn2c(=O)c1S(=O)(=O)N1CCN(c2cccc(Cl)c2)CC1	-0.478
COc1ccc(OCCOCCOc2ccc(C)cc2[N+](=O)[O-])cc1	-22.4
CCC1CCCCN1C(=O)COc1cccc2c1CCN(C)C2=O (stereo not shown)	1.34
CCCCC(=O)Nc1nnc(-c2ccc(OC)cc2)s1	-2.51
COc1ccc(CCNC(=O)CCCC(=O)n2nc(C)c3ccccc32)cc1OC	-1.14
C=CCN1CCN(C(=O)c2cc3c(s2)CCCC3)CC1	-19.3
OC(CNCc1cccs1)c1ccccc1 (stereo not shown)	7.94
CC(=O)N1CCN(c2nc(CC(C)C)c3c(c2C#N)CCC3)CC1	-9.82
Cn1c(SCC(=O)N2CCCc3ccccc32)nnc1-c1ccco1	-1.95
CCOc1ccc(-n2c(SCC(N)=O)nc3c([nH]c4ccccc43)c2=O)cc1	1.03
COCCn1c(C)cc(C(=O)CSc2cc(C)c3ccccc3n2)c1C	4.15
CCCCn1c(N)c(N(CCC(C)C)C(=O)c2sc3nc4n(c(=O)c3c2C)CCC4)c(=O)[nH]c1=O	15.8
COc1ccc(-c2ccccc2)cc1NC(=O)c1cccs1	8.59
Cc1ccc2nc(NCC(=O)O)nc(-c3ccccc3)c2c1	4.48
CS(=O)(=O)NCC(c1cccnc1)N1CCN(c2ccccc2F)CC1 (stereo not shown)	-9.77
CCOC(=O)CSc1cccc2cccnc12	2.32

Structure (SMILES)	hERG current change (%, negative = inhibition) at 10uM [%]
CC/C(=N/Nc1ccccc1)c1cnnc(-c2ccccc2)n1	1.98
CC(C)(C)CN1C(N)=NC[C@@H]1Cc1ccc(O)cc1	10.1
O=C(CSc1nnnn1-c1ccc(O)cc1)c1cc2ccccc2o1	-9.49
Cc1ccccc1C(=O)Nc1cc(C(F)(F)F)ccc1-n1cncn1	-3.12
O=C(Nc1ccc(OC(F)(F)F)cc1)c1ccc2nc[nH]c2c1	0.611
O=[N+]([O-])c1cc(CN2CCN(c3cccc(C(F)(F)F)c3)CC2)c2cccnc2c1O	0.813
C=CCNC(=S)NCCO	18.1
CC(=O)n1nc(-c2cccnc2)nc1N	-7.75
O=[N+]([O-])c1ccc(Cl)c(/C=N/NC(=S)Nc2ccccc2)c1	21.2
COc1ccc(CNC(=O)CSc2nc3ccccc3n2C(C)=O)cc1	1.61
CCOC(=O)NN1C(=O)c2ccccc2NC1c1cccnc1 (stereo not shown)	0.824
CC1CCCN(CC(O)COCc2ccc3c(c2)OCO3)C1.Cl (stereo not shown)	-6.78
Cc1nn(-c2ccccc2)c(N)c1C1(O)C(=O)N(C(C)C)c2ccccc21 (stereo not shown)	-0.706
CCC(C)N(C(=O)Cn1c(=O)cnc2ccccc21)C1CCS(=O)(=O)C1 (stereo not shown)	-14.9
CCCCC1=CC2=C(c3ccco3)C(=O)C(C)(OC(=O)c3ccc(OC)cc3)C(=O)C2=CN1C(CO)CO (stereo not shown)	7.79
COc1ccc2oc(N)c(C=O)c(=O)c2c1	8.6
COc1ccc(-c2[nH]ncc2CN(C)C(C)c2cccs2)c(F)c1 (stereo not shown)	-5.76
Cc1cc(SCC(=O)Nc2ccc(O)cc2)n2nc(C)c(-c3ccccc3)c2n1	11.9
CC(/C=C1\SC(=S)N(CCC(=O)Nc2nc(C)cs2)C1=O)=C\c1ccccc1	20.9
S=c1[nH]nc(-c2ccc(Cl)cc2Cl)n1-c1ccccc1	17.7

Structure (SMILES)	hERG current change (%, negative = inhibition) at 10uM [%]
Cn1c(=O)c(C(=O)c2ccc(S(C)(=O)=O)c(Cl)c2Cl)c(O)c2ccccc21	-12.6
CCC(Oc1ccccc1)C(=O)N1CCC(C(N)=O)CC1 (stereo not shown)	15.8
O=C1NCCCN1Cc1ccc(Cl)cc1	1.79
NC(=O)c1ccc(NC(=O)CSc2nc3ccccc3c(=O)n2CCCN2CCOCC2)cc1	-5.06
Cc1ccccc1CSCC(=O)c1c(N)n(CC(C)C)c(=O)n(C)c1=O	7.95
O=C(Cn1c(=O)n(CC2CS2)c2ccccc21)N1CCCCCC1 (stereo not shown)	14.1
CCCCCN(C(=O)NC(=O)Nc1ccc(C)cc1)S(=O)(=O)c1ccccc1	5.56
CCC(C)c1nc2c(c(N3CCC3=O)c1-c1ccccc1)CCCC2 (stereo not shown)	-26.8
CC1CN(S(=O)(=O)c2cccc(C(=O)OCC(=O)c3cccs3)c2)CC(C)O1 (stereo not shown)	5.85
CCN1CCN(C(=O)c2ccc3c(c2)N(Cc2ccc(C)cc2)CCS3)CC1	-48.2
Cc1cccc(N2CCN(S(=O)(=O)c3ccc(-c4coc(C)n4)cc3)CC2C)c1 (stereo not shown)	8.34
CN1C(N)=NC(=O)/C1=C\c1ccc(Br)cc1	8.35
COc1ccc(C2=CC(=O)CC(c3ccccc3)C2)cc1 (stereo not shown)	5.79
OCCC1CN(Cc2ccc(C(F)(F)F)cc2)CCN1Cc1ccccc1 (stereo not shown)	-56.8
CC(C)n1c(CSCc2ccc(Cl)cc2Cl)n[nH]c1=S	3.14
Clc1cccc(Cl)c1COc1ccncc1	7.32
COc1ccc(CC(=O)N(C)Cc2cccc(OC)c2OC)cc1S(=O)(=O)N1CCOCC1	-5.58
O=C(c1cccc(Cl)c1)N1CCCC(c2ccc(Cl)cc2)=N1	30.2
